Patent publication US12612465B2, “Formulations comprising PCSK9 specific monoclonal antibodies” (Amgen Inc., priority 2012, dated 2026)

Target: human D374Y PCSK9 (Homo sapiens, UniProt Q8NBP7, D374Y/E620G/G670E/V474I)
Assay: Receptor ligand blocking screen / functional screening of hybridoma antibodies
Type: binding
Procedure: To screen for the antibodies that block PCSK9 binding to LDLR an assay was developed using the D374Y PCSK9 mutant. […] The following protocol was employed in the receptor ligand blocking screen: Costar 3702 medium binding 384 well plates (Corning Life Sciences) were employed in the screen. The plates were coated with goat anti-LDLR (R&D Cat # AF2148) at 2 μg/ml in 1×PBS/0.05% Azide at a volume of 40 μl/well. The plates were incubated at 4° C. overnight. The plates were then washed using a Titertek plate washer (Titertek, Huntsville, Ala.). A 3-cycle wash was performed. The plates were blocked with 90 μl of 1×PBS/1% milk and incubated approximately 30 minutes at room temperature. The plates were then washed using the Titertek plate washer. A 3-cycle wash was performed. The capture sample was LDLR (R&D, Cat #2148LD/CF), and was added at 0.4 μg/ml in 1×PBS/1% milk/10 mM Ca^2+ at a volume of 40 μl/well. The plates were then incubated for 1 hour and 10 minutes at room temperature. […] OD's were read immediately at 450 nm using a Titertek plate reader. […]
Limiting dilution was used to isolate a manageable number of clones from each line. […] The concentration and potency of the antibodies to PCSK9 in the supernatants of those cultures were determined by ELISA and by in vitro functional testing, as described herein.

human D374Y PCSK9, sequence (Q8NBP7 153-692 D374Y/V474I/E620G/G670E): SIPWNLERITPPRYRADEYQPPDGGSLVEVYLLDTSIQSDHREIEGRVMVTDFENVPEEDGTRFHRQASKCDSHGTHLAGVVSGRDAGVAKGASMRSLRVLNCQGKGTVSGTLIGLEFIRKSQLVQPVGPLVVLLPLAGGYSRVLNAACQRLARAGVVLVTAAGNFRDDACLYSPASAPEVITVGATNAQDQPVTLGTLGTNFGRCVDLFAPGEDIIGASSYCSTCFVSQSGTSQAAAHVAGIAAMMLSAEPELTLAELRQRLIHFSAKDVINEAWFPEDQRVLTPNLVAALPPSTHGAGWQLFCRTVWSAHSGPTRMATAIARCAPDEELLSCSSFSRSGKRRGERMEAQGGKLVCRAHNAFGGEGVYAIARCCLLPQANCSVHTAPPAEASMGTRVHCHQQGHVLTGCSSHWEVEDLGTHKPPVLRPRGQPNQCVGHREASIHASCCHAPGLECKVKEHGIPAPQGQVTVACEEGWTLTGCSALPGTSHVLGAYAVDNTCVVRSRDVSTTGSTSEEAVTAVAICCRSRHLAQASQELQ

neutralizing ability: weak neutralizers
B1: 9C9: anti-PCSK9 ABP, light/heavy variable region SEQ ID NO 30/64 (antibody, listed as Homo sapiens, V domains shown)
VH: EVQLVESGGGLVQPGGSLRLSCVVSGFTFSSYWMSWVRQAPGKGLEWVANIKQDGSEKYYVDSVKGRFTISRDNAKNSLYLQMNSLRAEDTAVYYCARESNWGFAFDIWGQGTMVTVSS
VL: QSVLTQPPSASGTPGQRVTISCSGSSSNIGSKTVNWYQQVPGTAPKLLIYRNNQRPLGVPDRFSGSKSGTSASLAISGLQSEDEADYYCAAWDDSLNWVFGGGTKLTVL
